PubChem BioAssay AID624417 (National Center for Advancing Translational Sciences (NCATS), 2012)
Hit rate of the full screen: of about 410,000 compounds, about 6,400 (1.6%) were called active. The inconclusive results got no clear call from the source; some entries with a clear call stand among them for comparison. The call rests on the fitted dose curve; in most records, active means well fitted inhibition curve with a large enough effect; inconclusive means small, poorly fitted or top-dose-only effect; inactive means no such curve, though single readings can be large or run the other way. Potencies of inconclusive entries are left out as doubtful fits.

Each molecule was assayed against Glucagon-like peptide 1 receptor (Homo sapiens) (UniProt P43220) (assay: qHTS of GLP-1 Receptor Inverse Agonists (Inhibition Mode)). Conditions: HEK293 GLP-1R CRE-luciferase, luminescence, 24 h, GLP-1R form is constitutively active; activity change, negative = inhibition: at 38.3 µM (top of the series) unless noted.
Method in brief: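 Assay principle: reduced luminescence from a cAMP-responsive reporter in HEK293 cells co-expressing a constitutively active GLP-1R. Conditions: 24 hr compound incubation, 37 deg C, 5% CO2.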
Further: nearly all actives have a fitted effect of over 55% in size.
On the % scale 0 is the no-effect control and ±100 the full control effect; potency means the concentration at half of the fitted maximal effect; tags describe the fitted curve by direction and shape.

Chain of UniProt P43220 (P43220 whole entry, looked up): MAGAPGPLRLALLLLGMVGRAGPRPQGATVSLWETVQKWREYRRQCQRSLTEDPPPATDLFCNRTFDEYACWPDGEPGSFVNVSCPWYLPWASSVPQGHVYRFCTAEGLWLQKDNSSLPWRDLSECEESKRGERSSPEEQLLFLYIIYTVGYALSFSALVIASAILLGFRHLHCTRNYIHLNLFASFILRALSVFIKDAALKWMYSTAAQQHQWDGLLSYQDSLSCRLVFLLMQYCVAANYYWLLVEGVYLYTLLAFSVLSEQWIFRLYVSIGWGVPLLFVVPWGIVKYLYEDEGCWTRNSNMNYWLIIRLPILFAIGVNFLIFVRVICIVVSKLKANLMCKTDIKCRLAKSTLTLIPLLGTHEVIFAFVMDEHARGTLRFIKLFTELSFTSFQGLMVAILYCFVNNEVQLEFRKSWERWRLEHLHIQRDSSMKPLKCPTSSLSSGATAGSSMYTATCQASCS

Row | Compound | Potency | activity change, negative = inhibition
1 | Cc1cc(C)c(S(=O)(=O)NCCc2sc3nc(-c4ccc(F)cc4)nn3c2C)c(C)c1 | inconclusive [inhibitor, single point] | –
2 | O=C(NCc1ccco1)c1ccc2c(c1)N(Cc1ccccc1)C(=O)c1ccccc1S2 | inconclusive [inhibitor, single point] | –
3 | O=C(NC1CCCCC1)c1ccc(CSc2nc3cccnc3n2Cc2cccc(F)c2)cc1 | inconclusive [inhibitor, single point] | –
4 | O=S(=O)(NCC(c1ccc2c(c1)OCO2)N1CCN(c2ccccc2)CC1)c1ccccc1 (stereo not drawn) | inconclusive [inhibitor, partial curve, poor fit] | –
5 | CCCN1C(=O)c2cc(C(=O)NC3CCCCCC3)ccc2C1O (stereo not drawn) | inconclusive [inhibitor, single point] | –
6 | CCn1cc(C(=O)OCC(=O)Nc2cc(S(=O)(=O)N(C)C)ccc2C)c(=O)c2ccc(C)nc21 | inconclusive [inhibitor, full curve, poor fit] | –
7 | CCCCOc1ccccc1C1NC(=O)NC(C)=C1C(=O)OCc1ccco1 (stereo not drawn) | inconclusive [inhibitor, partial curve, poor fit] | –
8 | CC(C)(C)CN1CCN(Cc2cc3ccccc3[nH]2)CC1CCO (stereo not drawn) | inconclusive [inhibitor, single point] | –
9 | CCc1ccc(C2CC3C(CN2S(=O)(=O)c2ccc(C)cc2)[C@@H](O)C[C@@H](c2ccc(CC)cc2)N3S(=O)(=O)c2ccc(C)cc2)cc1 (stereo partly drawn) | inconclusive [inhibitor, partial curve, poor fit] | –
10 | COc1ccc(NC(=O)c2ccccc2Oc2ccccc2)c(OC)c1 | inconclusive [inhibitor, single point] | –
11 | COC(=O)c1scc(-c2ccc(C)cc2)c1S(=O)(=O)N1CCN(c2ccc(F)cc2)CC1 | inconclusive [inhibitor, single point] | –
12 | CN(C)CCCN(C(=O)c1ccc(S(=O)(=O)N2CCCC2)cc1)c1nc2ccc(Br)cc2s1 | inconclusive [inhibitor, full curve, poor fit] | –
13 | CCCCC(=O)N1CCc2cc(OC)c(OC)cc2C1COc1ccc(C(=O)OCC)cc1 (stereo not drawn) | inconclusive [inhibitor, single point] | –
14 | CC(C(=O)Nc1ccc(F)c(F)c1)N1CCN(C)CC1 (stereo not drawn) | – | inactive: -3.06%
15 | CCOC(=O)C1=C(CC)Nc2ccccc2N=C1NC(=O)Nc1ccc(Cl)c(Cl)c1 | inconclusive [inhibitor, full curve, poor fit] | –
16 | CCOc1c(OC(C)=O)ccc(/C=C/c2ccc3cccc(OC)c3n2)c1[N+](=O)[O-] | inconclusive [inhibitor, partial curve, poor fit] | –
17 | COc1ccc(Cn2ccc3nc(C)c(C(=O)Nc4cc(OC)c(OC)c(OC)c4)cc3c2=O)cc1 | – | inactive: 15.9%
18 | Oc1ccc(C[C@H]2CN([C@@H](Cc3ccccc3)CN3CCCC3CN3C(=S)NC[C@@H]3Cc3ccccc3)C(=S)N2CC2CCCCC2)cc1 (stereo partly drawn) | inconclusive [inhibitor, single point] | –
19 | CCc1ccc(CN(C)C(=O)CCc2nnc(CCc3ccccc3OC)o2)nc1 | inconclusive [inhibitor, partial curve] | –

Row | Compound | Potency | activity change, negative = inhibition
20 | O=S1(=O)CCO[C@H]2Cc3ccccc3[C@H]2N1Cc1cccc(C(F)(F)F)c1 | inconclusive [inhibitor, single point] | –
21 | CCOC(=O)c1cc(-c2ccc(C)cc2)n(CCCC(=O)Nc2cc(C)ccc2C)c1 | – | inactive: -13.7%
22 | COc1ccccc1NC(=O)NNC(=O)COc1ccc2ccccc2c1 | inconclusive [inhibitor, single point] | –
23 | Cc1ccc(-n2nnc(-c3nccn3C)n2)cc1 | inconclusive [inhibitor, full curve, poor fit] | –
24 | CCOC1=C2CN(S(=O)(=O)c3ccc(C)cc3)C(c3cccc(Cl)c3)CC2NC(c2ccccc2)C1 (stereo not drawn) | inconclusive [inhibitor, single point] | –
25 | Cc1c(C(=O)NC2CCN(Cc3ccccc3)C2)oc2ccc(Br)cc12 (stereo not drawn) | inconclusive [inhibitor, partial curve, poor fit] | –
26 | N#C/C(=C\c1c[nH]c2ccccc12)C(=O)Nc1ncc(Cc2ccc(Cl)cc2Cl)s1 | inconclusive [inhibitor, partial curve, poor fit] | –
27 | O=[N+]([O-])c1ccc(NCCCNS(=O)(=O)c2ccccc2)c(Cl)c1 | inconclusive [inhibitor, single point] | –
28 | C=CCn1c(SCC(=O)c2cc(C)n(C(C)COC)c2C)nc2sc(C)c(C)c2c1=O (stereo not drawn) | inconclusive [inhibitor, single point] | –
29 | Cc1ccccc1NS(=O)(=O)c1ccc(F)cc1 | inconclusive [inhibitor, partial curve, poor fit] | –
30 | CC(=O)c1c(C)[nH]c(C(=O)N(C)C(c2ccccc2)c2ccccc2)c1C | inconclusive [inhibitor, partial curve, poor fit] | –
31 | Cc1cc(C)n(C(C)CC(=O)Nc2ccc(Cl)cc2C)n1 (stereo not drawn) | – | inactive: 2.06%
32 | CNc1cccnc1C=NNC(N)=S | – | inactive: -23.4%
33 | O=C(NN=C1CCCCCC1)c1cccs1 | – | inactive: 42.1%
34 | CC(Oc1ccc(Cl)cc1)C(=O)Nc1cccc(S(=O)(=O)N2CCOCC2)c1 (stereo not drawn) | inconclusive [inhibitor, single point] | –
35 | O=c1oc(Nc2ccc(F)cc2)nc2ccccc12 | inconclusive [inhibitor, single point] | –
36 | COc1ccccc1/C=C/C=N/n1c(-c2n[nH]c3c2CCC3)n[nH]c1=S | inconclusive [inhibitor, full curve, poor fit] | –
37 | CC(C)(C)c1cc(NC(=O)CSc2nnc(NCc3ccccc3)s2)n(-c2ccccc2)n1 | inconclusive [inhibitor, single point] | –
38 | CC(OC(=O)c1cc2sccc2n1C)C(=O)NCc1ccc(F)cc1 (stereo not drawn) | inconclusive [inhibitor, partial curve, poor fit] | –
